{
  "source": "patent US20240158515A1",
  "about": "“ANTI-FGFR3 ANTIBODIES AND ANTIGEN-BINDING FRAGMENTS AND METHODS OF USE THEREOF” (Regeneron Pharmaceuticals, Inc., priority 2022, published 2024)",
  "molecules": {"B1": {"name": "H4H30063P: anti-FGFR3 antibody, hIgG4^P; HCVR/LCVR SEQ ID NOs: 2 & 10; HC/LC SEQ ID NOs: 18 & 20 (antibody)", "heavy": "QVQLQESGPGLVKPSETLSLTCTVSGDSINSYFWSWIRQLPGKELEWIGHIYSSGSTRYNPSLQSRVTISIDTSKNQFSLKLSSVTAADTAVYYCARGASAVDYWGQGTLVTVSSASTKGPSVFPLAPCSRSTSESTAALGCLVKDYFPEPVTVSWNSGALTSGVHTFPAVLQSSGLYSLSSVVTVPSSSLGTKTYTCNVDHKPSNTKVDKRV[sequence of human IgG4 Fc with S228P (EU numbers) not given]", "light": "EIVLTQSPGTLSLSPGERATLSCRTSQSISSGYLAWYQQKPGQAPRLLIYGASRRATGIPDRFSGSGSGTDFTLTISRLEPEDFVVYYCQQYGSSPYTFGQGTKLEIKRTVAAPSVFIFPPSDEQLKSGTASVVCLLNNFYPREAKVQWKVDNALQSGNSQESVTEQDSKDSTYSLSSTLTLSKADYEKHKVYACEVTHQGLSSPVTKSFNRGEC"}},
  "key": {"[1]": {"target": "T1, dimeric human FGFR3b (hFGFR3b.mFc, REGN3153) (Homo sapiens, UniProt P22607)", "T1 construct": "REGN3153 (human FGFR3b expressed with a C-terminal murine Fc tag)", "T1 sequence (P22607 with tags, fused parts or gaps isoform P22607-2)": "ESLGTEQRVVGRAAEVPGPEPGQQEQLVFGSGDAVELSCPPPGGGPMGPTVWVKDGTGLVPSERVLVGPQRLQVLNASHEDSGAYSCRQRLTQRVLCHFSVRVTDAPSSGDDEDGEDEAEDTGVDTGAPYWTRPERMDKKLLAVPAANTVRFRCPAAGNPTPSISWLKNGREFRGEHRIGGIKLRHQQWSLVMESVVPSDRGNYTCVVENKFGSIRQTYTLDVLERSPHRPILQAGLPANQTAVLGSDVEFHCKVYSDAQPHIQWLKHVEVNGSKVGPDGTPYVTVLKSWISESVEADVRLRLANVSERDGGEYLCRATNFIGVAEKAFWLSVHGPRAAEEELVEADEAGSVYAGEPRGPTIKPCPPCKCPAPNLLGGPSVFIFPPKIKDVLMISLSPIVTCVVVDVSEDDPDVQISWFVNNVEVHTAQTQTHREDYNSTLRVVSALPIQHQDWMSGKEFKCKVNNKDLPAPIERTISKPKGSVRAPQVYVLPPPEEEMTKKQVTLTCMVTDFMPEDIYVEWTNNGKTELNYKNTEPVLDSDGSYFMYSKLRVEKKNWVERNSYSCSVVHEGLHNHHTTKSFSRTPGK", "assay": "Biacore SPR binding kinetics, dimeric human FGFR3b to captured antibodies", "settings": "25° C.", "description": "Biacore binding kinetics of anti-FGFR3 antibodies, in an antibody capture format, to monomeric human FGFR3b, cynomolgus FGFR3b, murine FGFR3b, human FGFR3c, and dimeric human FGFR3b ecto domain recombinant proteins at 25° C. were analyzed.\nEquilibrium dissociation constants (KD values) for human FGFR3b expressed with a C-terminal myc-myc-hexahistidine tag (hFGFR3b.mmH, REGN3152) or cynomolgus FGFR3b expressed with a C-terminal myc-myc-hexahistidine tag (mfFGFR3b.mmH, REGN3521), or murine FGFR3b expressed with a C-terminal myc-myc-hexahistidine tag (mFGFR3b.mmH, REGN3215) or human FGFR3c expressed with a C-terminal myc-myc-hexahistidine tag (hFGFR3c.mmH, REGN3155) or human FGFR3b expressed with an C-terminal murine Fc tag (hFGFR3b.mFc, REGN3153) binding to purified anti-FGFR3 antibodies were determined using a real-time surface plasmon resonance biosensor technology using a Biacore 3000 or Biacore 4000 instrument. The CM5 Biacore sensor surface was derivatized by amine coupling with a monoclonal mouse anti-human Fc monoclonal antibody (REGN2567). All Biacore binding studies were performed in a buffer composed of 0.01M HEPES pH 7.4, 0.15 M NaCl, 3 mM EDTA, 0.05% v/v Surfactant P20 (HBS-EP running buffer). Different concentrations of monomeric proteins prepared in HBS-EP running buffer (ranging from 90 nM to 3.33 nM in 3-fold serial dilutions) or dimeric protein (hFGFR3b.mFc, REGN3153) prepared in HBS-EP running buffer (ranging from 30 to 10 nM in 3-fold serial dilution) were injected over the captured anti-FGFR3 antibodies at a flow rate of 30 μL/minute. Antibody-reagent association was monitored for 5 minutes while dissociation in HBS-EP running buffer was monitored for 10 minutes. At the end of each cycle, the anti-FGFR3 antibody capture surface was regenerated using a 10 sec injection of 20 mM phosphoric acid. All binding kinetics experiments were performed at 25° C.\nThe specific SPR-Biacore sensorgrams were obtained by a double referencing procedure. The double referencing was performed by first subtracting the signal of each injection over a reference surface (anti-hFc) from the signal over the experimental surface (anti-hFc-captured anti-FGFR3 antibodies) thereby removing contributions from refractive index changes. In addition, running buffer injections were performed to allow subtraction of the signal changes resulting from the dissociation of captured antibodies from the coupled anti-hFc surface. Kinetic association (ka) and dissociation (kd) rate constants were determined by fitting the real-time sensorgrams to a 1:1 binding model using Scrubber v2.0c curve fitting software. Binding dissociation equilibrium constants (KD) and dissociative half-lives (t½) were calculated from the kinetic rate constants as: […]"}, "[2]": {"system": "BAF3/FGFR3b_S249C cells (human FGFR3b S249C)", "assay": "BaF3 proliferation assay (CellTiter-Glo), FGFR3b S249C", "assay_type": "cell-based, murine", "settings": "1 nM FGF1 + 5 ug/ml heparin"}, "[3]": {"system": "phosphorylation of MAPK in BaF3/FGFR3b cells (wild-type human FGFR3b)", "assay": "FGF1/heparin induced MAPK phosphorylation, Western blot", "assay_type": "cell-based, murine", "settings": "100 nM antibody 3 hrs, then FGF1 and heparin 10 min, FIG. 3", "description": "Assays evaluating the following were performed: (1) Inhibition of FGFR3 S249C dimerization using bladder cancer cell line UMUC14 with endogenous FGFR3 S249C mutation; and (2) Inhibition of FGF1/heparin induced downstream signaling in BaF3 cell expressing wild-type FGFR3.\nTo test the effects of anti-FGFR3 antibody on ligand-induced signaling, an engineered IL-3-dependent Ba/F3 murine hematopoietic cell line genetically modified to stably express wild-type human fibroblast growth factor receptor 3b was used. Engineered BaF3/FGFR3b cells were incubated overnight in starvation medium (RPM11640+Penicillin/Streptomycin/L-Glutamine+1 ng/mL mouse IL-3). After starvation, cells were either untreated or pretreated with 100 nM antibodies for 3 hrs followed by ligand (human 100 ng/ml FGF1 and 10 mg/ml heparin) stimulation for 10 min at 37° C. Cells were lysed in lysis buffer and equal amount of cell lysates were analyzed by SDS-PAGE. Blots were incubated with pMAPK or MAPK antibody overnight followed by incubation with anti-rabbit HRP 2nd antibody. Membranes were developed with SuperSignal West Pico or Femto substrate and luminescence images were captured with a C300 imager (Azure Biosystems)."}, "[4]": {"system": "BaF3 cells expressing FGFR3 S249C/V557M", "assay": "BaF3 proliferation assay, FGFR3 S249C/V557M", "assay_type": "cell-based, murine", "settings": "FIG. 12B", "description": "(§1) IL-3 dependent murine pro B cell line BaF3 cells were engineered to stably express full length human FGFR3b S249C, V557L, V557M, S249C/V557L, S249C/V557M (accession number for WT FGFR3b NP_001156685.1, amino acids M1-T808). Cells were maintained in RPMI 1640+10% FBS+P/S/G+1 ng/ml mouse IL-3+500 ug/ml Neomycin; 37° C. 5% CO2. For proliferation assays, cells were washed with IL-3-free culture media and plated at 10^5 cells/well into 96-well black wall tissue culture plates. Cells were treated with 1:3 serially diluted antibody as indicated in the presence or absence of 5 μg/ml heparin and 1 nM human FGF1. After addition of antibodies, cells were incubated at 37° C./5% CO2 for 72 h followed by the addition of an equal volume of CellTiter-Glo™ (Promega) reagent to lyse cells and detect luciferase activity. Luminescence signal was quantitated with Envision plate reader (PerkinElmer). EC50 values of the antibodies were determined using GraphPad Prism software."}, "[5]": {"system": "BaF3 cells expressing FGFR3 S249C/V557L", "assay": "BaF3 proliferation assay, FGFR3 S249C/V557L", "assay_type": "cell-based, murine", "settings": "FIG. 12A right", "description": "as §1"}},
  "data": [
    {"molecule": "B1", "values": [
      {"measurement": "ka", "setting": "[1]", "result": 442000, "unit": "M⁻¹ s⁻¹"},
      {"measurement": "kd", "setting": "[1]", "result": "≤1e-05", "unit": "s⁻¹"},
      {"measurement": "inhibition of ligand-enhanced proliferation, BaF3/FGFR3_S249C (in words)", "setting": "[2]", "result": "inhibited to similar maximum levels"},
      {"measurement": "FGF1/Hep stimulation-dependent phosphorylation of MAPK (in words)", "setting": "[3]", "result": "decreased FGF1/Hep stimulation-dependent phosphorylation of MAPK"},
      {"measurement": "growth inhibition of BaF3 cells expressing FGFR3 S249C+V557M (in words)", "setting": "[4]", "result": "strongly inhibit the growth"},
      {"measurement": "growth inhibition of BaF3 cells expressing FGFR3 S249C+V557L (in words)", "setting": "[5]", "result": "strongly inhibit the growth"}
    ]}
  ]
}
